# Measurements taken from the supplement of paper PMC3334620.
# Over roughly 33,000 sequences, “E-score (-0.5 to 0.5)” has its median near -0.032; the highest 2% begin near 0.36. The list shows a part of the results.
# Target: T1, Sko1 (UniProt Q02100)
# T1 sequence: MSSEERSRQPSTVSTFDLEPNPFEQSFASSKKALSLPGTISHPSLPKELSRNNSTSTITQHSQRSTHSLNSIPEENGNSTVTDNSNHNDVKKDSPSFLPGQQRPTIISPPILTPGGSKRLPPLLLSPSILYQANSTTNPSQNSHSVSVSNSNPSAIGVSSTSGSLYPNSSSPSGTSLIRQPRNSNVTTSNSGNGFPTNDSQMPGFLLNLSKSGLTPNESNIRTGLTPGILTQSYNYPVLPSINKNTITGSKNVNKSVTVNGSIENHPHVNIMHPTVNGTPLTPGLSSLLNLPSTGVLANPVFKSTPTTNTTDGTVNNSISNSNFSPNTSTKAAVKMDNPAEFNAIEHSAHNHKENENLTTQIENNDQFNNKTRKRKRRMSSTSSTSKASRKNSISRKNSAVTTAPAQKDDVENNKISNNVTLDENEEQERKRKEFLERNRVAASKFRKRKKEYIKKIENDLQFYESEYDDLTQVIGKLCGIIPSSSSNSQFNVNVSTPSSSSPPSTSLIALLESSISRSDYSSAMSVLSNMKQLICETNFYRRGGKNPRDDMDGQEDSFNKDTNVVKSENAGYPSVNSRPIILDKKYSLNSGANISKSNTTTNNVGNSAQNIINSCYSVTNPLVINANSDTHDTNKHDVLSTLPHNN
# Assay: PBM E-score (8-mer binding enrichment) (E-score (-0.5 to 0.5)); higher = stronger / more preferred TF binding; most listed sequences are background and not binding sites
# Details: protein concentration: 200 nM; construct: GST-full length
# Experimental: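 Universal 'all 10-mer' protein binding microarrays (Agilent AMADID 015681) probed with GST-tagged S. cerevisiae TFs (full-length or DBD) made by in vitro transcription/translation (PURExpress), about 100-200 nM. Bound TF was detected with fluorescent anti-GST. Each ungapped 8-mer (which stands for itself and its reverse complement) is scored by the PBM enrichment score (E-score), a modified Wilcoxon-Mann-Whitney statistic from -0.5 to +0.5, computed with the Universal PBM Analysis Suite. Scale: above 0.35 generally sequence-specific binding.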
row,Sequence,PBM E-score
1,AGTATTGC,0.0312
2,CCAGGCAC,-0.156
3,CCCTCTCG,-0.408
4,GAATTTCA,0.0843
5,CTCATTGC,0.0918
6,ATTAGATA,0.236
7,AGCCTCCA,-0.207
8,CAACCAAC,-0.0623
9,TTCGGAAA,-0.102
10,GGGTCAAC,-0.136
11,TGAGGGCA,-0.146
12,GGGTTCGA,-0.277
13,ACATCTAC,0.161
14,TCCTACCA,-0.286
15,ATTCCTTG,-0.124
16,GCAGTTAA,0.0467
17,GAAGGAAA,-0.121
18,AATATCCC,-0.0915
19,ATTAGGGC,-0.205
20,ATTGAACC,-0.0368
21,CAAATGCG,0.0688
22,AACGTCAG,0.429
23,CATCGTTC,0.021
24,AGCCGCAC,-0.204
25,AACGCTGT,0.0693

row,Sequence,PBM E-score
1,GATCCAGC,-0.217
2,ATTCTGGC,-0.0861
3,AAAGAAAC,0.166
4,AAAAATCC,-0.162
5,ATGAGCAC,-0.00798
6,ACGTGAAG,0.326
7,CAGCGAGA,-0.214
8,CCACGTAC,0.374
9,AGCTATAA,0.0209
10,CGGGGAAG,-0.139
11,ATCGTTCA,0.0814
12,AGATATAA,0.149
13,CTTTTTCA,-0.103
14,CCAAGACC,-0.323
15,CTAAAGAC,0.00796
16,CCCTAAGA,-0.197
17,ACTGATTG,-0.022
18,AGGGAACG,-0.157
19,AACCTATT,-0.0142
20,ACCTGGCG,-0.109
21,TCAGTGAA,-0.0739
22,ATCCACCC,-0.197
23,CCATGATC,-0.0725
24,CAACTGCC,-0.0672
25,GGCCTAAC,-0.115

row,Sequence,PBM E-score
1,GCTAGGGA,-0.366
2,CGTTTGGA,0.0125
3,CTTTGGCC,-0.0406
4,TAACCGGA,-0.106
5,CACTACAC,0.115
6,AAGCTGCG,-0.0505
7,CGGGCATA,-0.167
8,AATGAGAC,-0.106
9,TCAACCAA,0.092
10,GTGGTTCA,0.136
11,ACCTTGAT,-0.12
12,TGATGTAA,0.434
13,GAGTAAAC,0.00425
14,GTTAGAAC,0.182
15,AGCTCGGG,-0.202
16,GCGATGTA,0.135
17,AATCAGTA,0.0871
18,AGTACCAG,-0.0512
19,GGACGTGA,0.181
20,ACCTCTGC,-0.296
21,AGTCTGTG,-0.131
22,AATGCTTC,-0.0667
23,CAAACCTA,0.0861
24,AGCATTCC,-0.095
25,CTTTTTTA,0.0539

row,Sequence,PBM E-score
1,CAACATAG,-0.0302
2,TTACCGAA,0.0923
3,ACCTACTA,0.109
4,ACTGTGAG,-0.108
5,GCTTACCA,-0.0214
6,CTATCACA,0.0977
7,TGATATCA,0.307
8,ATTATGCG,0.231
9,ATAGGATC,-0.145
10,GCGAACAA,0.0976
11,CCAGGGGG,-0.21
12,CCGGGGTA,-0.305
13,AATGTGGG,-0.0795
14,ACTGGCCC,-0.236
15,ACCGCCCA,-0.312
16,AAGAGACA,0.0233
17,AACAGGGC,-0.204
18,GCGTCTCA,0.0184
19,AACCAAAG,0.00562
20,CCACGGCC,-0.166
21,CTCAAATC,-0.0426
22,AATCCGCG,-0.0276
23,CGATCGAA,-0.131
24,ATGGCGCA,0.21
25,ACTATTTA,0.0998

row,Sequence,PBM E-score
1,AGCCGGGG,-0.274
2,CCTACCCG,-0.0568
3,CCAGTACC,-0.185
4,GAGTAGTA,-0.054
5,CACATAGC,-0.0437
6,AGCTATGC,0.0129
7,CAATGGCA,-0.0732
8,CTACTTAC,0.132
9,CATCTGAC,-0.0444
10,AACTATCC,-0.237
11,AATTCTGT,0.075
12,GCCGAACC,-0.251
13,GGTGGGAC,-0.199
14,AACAATTA,0.263
15,ATTACACC,0.105
16,CTACGCAC,0.315
17,CGTTACAC,0.126
18,GCGTTTCA,-0.0433
19,ACTGAAAG,0.0387
20,GGTGTCCA,-0.177
21,CCCTTGGA,-0.1
22,CCAGCGTA,-0.014
23,CAAAGTCA,-0.0486
24,AGATGCAC,-0.0198
25,CTATTCGA,0.0674

row,Sequence,PBM E-score
1,CTTGCCGC,-0.0196
2,GAAGCTTC,-0.375
3,GGTTAGCA,-0.177
4,GAATTCAA,0.0513
5,GGCATCCA,-0.201
6,CCGAGGTA,-0.161
7,AAAAATGC,0.00691
8,AAGCATTG,-0.123
9,GAACGGAC,-0.228
10,GTGGAGCA,-0.21
11,AGCCTTAA,-0.136
12,AGGAGATC,-0.214
13,AACAAGTG,0.064
14,AAGGGTAC,-0.083
15,AATCTTCA,0.175
16,AGGAAGCC,-0.147
17,CGACCCAC,-0.147
18,CAGCACTA,-0.15
19,AGTATTCC,0.0387
20,GCTCCGAA,-0.0558
21,ACACTGAT,-0.132
22,GTGTTTGA,0.258
23,AAGTATTG,0.15
24,CCCAGTTC,-0.144
25,GGAGCCGA,-0.149

row,Sequence,PBM E-score
1,TGTCCACA,-0.0162
2,TATTTGCA,0.258
3,ACCCTGAA,-0.0751
4,AGCAACGA,0.0335
5,GTTCGCTA,0.0269
6,ATTCATGC,-0.0766
7,GGGGCACA,-0.254
8,GGCAAGAA,-0.00879
9,GAGCAGGA,-0.112
10,GATACGCA,0.351
11,GTTCTTTA,0.175
12,TAAGAACA,0.212
13,ACACAGTG,0.00218
14,GATCAACC,-0.0251
15,ATTGAGGA,-0.038
16,AAGGGTGG,-0.237
17,ATATATAG,0.192
18,AGCCACCA,-0.177
19,ACGTATGC,0.458
20,TCTAATAA,0.274
21,CTGGGATA,-0.212
22,AATGATGA,0.328
